# Reference: the supplement of paper PMC8728848
# The list shows a part of the results.
# Legend:
# Assay in all cases: glycan array binding signal (z-score within array); higher = stronger binding
# Settings in all cases: glycan notation: IUPAC condensed, linker removed
# [1] = biological target: Fuc(a1-2)Gal(b1-4)GlcNAc6S
# Outline: (§1)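 The binding signal is a Z-score computed within each array. Data were drawn from 3228 arrays in the Consortium for Functional Glycomics database, restricted to those with a known protein sequence. Scores were averaged over arrays of the same protein sequence at different concentrations or buffers, and over linkers, and negative values can be taken as non-binding.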
# [2] = biological target: Fuc(a1-2)Gal(b1-4)[Fuc(a1-3)]GlcNAc
# Outline: as §1
# [3] = biological target: Fuc(a1-2)Gal(b1-4)[Fuc(a1-3)]GlcNAc(b1-2)Man(a1-3)[Fuc(a1-2)Gal(b1-4)[Fuc(a1-3)]GlcNAc(b1-2)Man(a1-6)]Man(b1-4)GlcNAc(b1-4)GlcNAc
# Outline: as §1
# [4] = biological target: Fuc(a1-2)Gal(b1-4)[Fuc(a1-3)]GlcNAc(b1-2)[Fuc(a1-2)Gal(b1-4)[Fuc(a1-3)]GlcNAc(b1-4)]Man(a1-3)[Fuc(a1-2)Gal(b1-4)[Fuc(a1-3)]GlcNAc(b1-2)Man(a1-6)]Man(b1-4)GlcNAc(b1-4)GlcNAc
# Outline: as §1
# [5] = biological target: Fuc(a1-2)Gal(b1-4)[Fuc(a1-3)]GlcNAc(b1-3)Gal(b1-4)[Fuc(a1-3)]GlcNAc
# Outline: as §1
# [6] = biological target: Fuc(a1-2)Gal(b1-4)[Fuc(a1-3)]GlcNAc(b1-3)Gal(b1-4)[Fuc(a1-3)]GlcNAc(b1-3)Gal(b1-4)[Fuc(a1-3)]GlcNAc
# Outline: as §1
# [7] = biological target: Fuc(a1-2)Gal(b1-4)[Fuc(a1-3)]GlcNAc(b1-3)GalNAc
# Outline: as §1
# [8] = biological target: Fuc(a1-2)Gal6S(b1-4)Glc
# Outline: as §1
# [9] = biological target: Fuc(a1-2)Gal6S(b1-4)Glc6S
# Outline: as §1
# [10] = biological target: Fuc(a1-2)Gal6S(b1-4)GlcNAc
# Outline: as §1
# [11] = biological target: Fuc(a1-2)GlcNAc
# Outline: as §1
# [12] = biological target: Fuc(a1-2)[Gal(a1-3)]Gal
# Outline: as §1
# [13] = biological target: Fuc(a1-2)[Gal(a1-3)]Gal(b1-3)GalNAc
# Outline: as §1
# [14] = biological target: Fuc(a1-2)[Gal(a1-3)]Gal(b1-3)GlcNAc
# Outline: as §1
# [15] = biological target: Fuc(a1-2)[Gal(a1-3)]Gal(b1-3)GlcNAc(b1-2)Man(a1-3)[Fuc(a1-2)[Gal(a1-3)]Gal(b1-3)GlcNAc(b1-2)Man(a1-6)]Man(b1-4)GlcNAc(b1-4)GlcNAc
# Outline: as §1
# [16] = biological target: Fuc(a1-2)[Gal(a1-3)]Gal(b1-3)GlcNAc(b1-2)Man(a1-3)[Fuc(a1-2)[Gal(a1-3)]Gal(b1-3)GlcNAc(b1-2)Man(a1-6)]Man(b1-4)GlcNAc(b1-4)[Fuc(a1-6)]GlcNAc
# Outline: as §1
# [17] = biological target: Fuc(a1-2)[Gal(a1-3)]Gal(b1-3)GlcNAc(b1-3)GalNAc
# Outline: as §1
# [18] = biological target: Fuc(a1-2)[Gal(a1-3)]Gal(b1-4)Glc
# Outline: as §1
# [19] = biological target: Fuc(a1-2)[Gal(a1-3)]Gal(b1-4)GlcNAc
# Outline: as §1
# [20] = biological target: Fuc(a1-2)[Gal(a1-3)]Gal(b1-4)GlcNAc(b1-2)Man(a1-3)[Fuc(a1-2)[Gal(a1-3)]Gal(b1-4)GlcNAc(b1-2)Man(a1-6)]Man(b1-4)GlcNAc(b1-4)GlcNAc
# Outline: as §1
# [21] = biological target: Fuc(a1-2)[Gal(a1-3)]Gal(b1-4)GlcNAc(b1-2)Man(a1-3)[Fuc(a1-2)[Gal(a1-3)]Gal(b1-4)GlcNAc(b1-2)Man(a1-6)]Man(b1-4)GlcNAc(b1-4)[Fuc(a1-6)]GlcNAc
# Outline: as §1
# [22] = biological target: Fuc(a1-2)[Gal(a1-3)]Gal(b1-4)GlcNAc(b1-3)GalNAc
# Outline: as §1
binder,measurement,setting,value
"BC2L-A (Burkholderia cenocepacia), Q1BKJ8_BURCA (protein) ADSQTSSNRAGEFSIPPNTDFRAIFFANAAEQQHIKLFIGDSQEPAAYHKLTTRDGPREATLNSGNGKIRFEVSVNGKPSATDARLAPINGKKSDGSPFTVNFGIVVSEDGHDSDYNDGIVVLQWPIG",glycan array binding signal (z-score),[1],0.072
same,glycan array binding signal (z-score),[2],-0.262
same,glycan array binding signal (z-score),[3],0.004
same,glycan array binding signal (z-score),[4],-0.194
same,glycan array binding signal (z-score),[5],-0.208
same,glycan array binding signal (z-score),[6],-0.115
same,glycan array binding signal (z-score),[7],-0.21
same,glycan array binding signal (z-score),[8],-0.176
same,glycan array binding signal (z-score),[9],-0.178
same,glycan array binding signal (z-score),[10],-0.173
same,glycan array binding signal (z-score),[11],-0.178
same,glycan array binding signal (z-score),[12],-0.28
same,glycan array binding signal (z-score),[13],-0.219
same,glycan array binding signal (z-score),[14],-0.253
same,glycan array binding signal (z-score),[15],0.405
same,glycan array binding signal (z-score),[16],1.1
same,glycan array binding signal (z-score),[17],-0.219
same,glycan array binding signal (z-score),[18],-0.291
same,glycan array binding signal (z-score),[19],-0.265
same,glycan array binding signal (z-score),[20],-0.107
same,glycan array binding signal (z-score),[21],0.323
same,glycan array binding signal (z-score),[22],-0.217
